Sequences and labels used below:
B1: OR4K15 (parent)
chain: GUUAACGGUCAUAGGCCAUGGAAACUAGGAGCACCAUUUCGCUGCCAGUGAAGAAAUGAACAAAGAAAAUCUGGGCCAGGCAGGCAUCAAAAGAAAUAGUCUUGCGCUCAACCAGAAAGUCUGUAAUCAUUUUAAGGGUA

The source gives no read counts; variants with many changes may rest on few reads.

Variants of B1 are the subject of the data set. Put plainly: self-cleavage, relative activity (ratio to wild type); higher = more cleavage; in vitro, sequencing; the parent is a self-cleaving ribozyme.
For the variant GUUAACGGUCAUAGGCCAUGGAAACUAGGAGCACCAUUUCGCUGCCAGUGAAGAGAUGAACAAAGAAAAUCUGGGCCAGGCAGGCAUCAAAAGAAAUAGUCUUGCGCCCAACCAGAAAGUCUGUAAUCAUUUUAAGAGUA, the self-cleavage was determined as 0.02.

In the case of GUUAACGGUCAUAGGCCAUGGAAACUAGGAGCACCAUUUCGCUGCCAGUGAAGAGAUGAACAAAGAAAAUCUGGGCCAGGCAGGCAUCAAAAGAAAUAGUCCUGCGCUCAGCCAGAAAGUCUGUAAUCAUUUUAAGGGUA, the self-cleavage came to 0.02.

In the case of GUUAACGGUCAUAGGCCAUGGAAACUAGGAGCACCAUUUCGCUGCCAGUGAAGAGAUGAACAAAGAAAAUCCGGACCAGGCAGGCAUCAAAAGAAAUAGUCUUGCGCUCAACCAGAAAGUCUGUAAUCAUUUUAAGGGUA, the self-cleavage worked out at 0.28.

GUUAACGGUCAUAGGCCAUGGAAACUAGGAGCACCAUUUCGCUGCCAGUGAAGAAGUGGACAAAGAAAAUCUGGGCCAGGCAGGCAUCAAAAGAAAUAGUCCUGCGCUCAACCAGAAAGUCUGUAAUCAUUUUAAGGGUA: the self-cleavage was determined as 1.52.

As to GUUAACGGUCAUAGGCCAUGGAAACUAGGAGCACCAUUUCGCUGCCAGUGAAGAGAUGAACAAAGAAAAUCUGGGCCAGGCAGGCAUCAAAAGAAAUAGUCUUGCGCCCAACCAGAAAGUCUGUAGUCAUUUUAAGGGUA, the self-cleavage amounted to 0.

For GUUAACGGUCAUAGGCCAUGGAAACUAGGAGCACCAUUUCGCUGCCAGUGAAGAAGUGGACAAAGAAAAUCUGGGCCAGGCGGGCAUCAAAAGAAAUAGUCUUGCGCUCAACCAGAAAGUCUGUAAUCAUUUUAAGGGUA, the self-cleavage is 0.73.

GUUAACGGUCAUAGGCCAUGGAAACUAGGAGCACCAUUUCGCUGCCAGUGAAGAUAUGAACAAAGAGAAUCUGGGCCAGGCAGGCACCAAAAGAAAUAGUCUUGCGCUCGACCAGAAAGUCUGUAAUCAUUUUAAGGGUA: the self-cleavage was 0.09.

Regarding GUUAACGGUCAUAGGCCAUGGAAACUAGGAGCACCAUUUCGCUGCCAGUGAAGAGAUGAACAAAGAAAAUCUGGGCCAGGCAGGCAUCAAAAGAAAUAGUCCUGCGCUCAACCAGAAAGUCUGUAAUCAUUUUAAGGGUG, the self-cleavage stood at 1.47.

In the case of GUUAACGGUCAUAGGCCAUGGAAACUAGGAGCACCAUUUCGCUGCCAGUGAAGAACUGAACAAAGAGAAUCUGGGCCAGGCAGGCAUCAAAAGAAAUAGUCUUGCGCUCAACCAGAAAGUCUGUAUUCAUUUUAAGGGUA, the self-cleavage is 0.59.

Turning to GUUAACGGUCAUAGGCCAUGGAAACUAGGAGCACCAUUUCGCUGCCAGUGAAGAAGUGUACAAAGAAAAUCUGGGCCAGGCAGGCAUCAAAAGAAAUAGUCUUGCGCUCAACCAGAAAGUCUGUGAUCAUUUUAAGGGUA, the self-cleavage stood at 0.66.

With GUUAACGGUCAUAGGCCAUGGAAACUAGGAGCACCAUUUCGCUGCCAGUGAAGAUAUGAACUAAGAAAAUCUGGGCCAGGCAGGCAUCAAAAGAGAUAGUCUUGCGCUCAACCAGAAAGUCUGUAAUCAUUUUAAGGGUA, the self-cleavage stood at 0.74.

In the case of GUUAACGGUCAUAGGCCAUGGAAACUAGGAGCACCAUUUCGCUGCCAGUGAAGAGAUGAACAAAGAAAAUCUGGGCCAGGCAGGCACCAGGAGAAAUAGUCCUGUGCUCAACCAGAAAGUCUGUAAUCAUUUUAAGGGUA, the self-cleavage amounted to 0.07.

As to GUUAACGGUCAUAGGCCAUGGAAACUAGGAGCACCAUUUCGCUGCCAGUGAAGAGAUGAACAAAGAAAAUCGGGGCCAGGCAGGAAUCAAAAGAAAUAGUCUUGCGCUCAACCAGAAAGUCUGUAAUCAUUUUAAGGGUA, the self-cleavage was found to be 0.14.

In the case of GUUAACGGUCAUAGGCCAUGGAAACUAGGAGCACCAUUUCGCUGCCAGUGAAGAGAUGAACAAAGAAAAUCUGGGCCAGGCAGGCAUCAAAAGAAAUAGUCUUGCGCUCAACCAGAAAGUCUGCAAUCAUCUUAAGGGUA, the self-cleavage was determined as 0.04.

For GUUAACGGUCAUAGGCCAUGGAAACUAGGAGCACCAUUUCGCUGCCAGUGAAGAUAUGAACAAAGAAAAUCUGGGCCAGGCAGGCAUCAAAAGAAAUAGUCUUGCACUCAACCAGACAGUCUGUAAUAAUUUUAAGGGUA, the self-cleavage stood at 0.01.

Turning to GUUAACGGUCAUAGGCCAUGGAAACUAGGAGCACCAUUUCGCUGCCAGUGAAGAUAUGAACAAAGAAAACCUGGGCCAGGCAGGCAUCAAAAGAAAUAGUCUCGCGCUCAACCAGAAAGUCUGUAAUCAUUUUAAGGGUA, the self-cleavage stood at 0.58.

In the case of GUUAACGGUCAUAGGCCAUGGAAACUAGGAGCACCAUUUCGCUGCCAGUGAAGAUAUGAACAAAGAAAAUCUGGGCCAGGCAGGCAUCAAAAGAAAUAGUCUGGCGCUCAACCAGAGAGUCUGUAAUCGUUUUAAGGGUA, the self-cleavage stood at 0.01.

On to GUUAACGGUCAUAGGCCAUGGAAACUAGGAGCACCAUUUCGCUGCCAGUGAAGAUAUGAGCAAAGAAAAUCUGGGCCAGGCAGGCAUCAAAAGAAAUAGUCUUGCGCUCAACCAGGAAGUCUGUAAUCAUUUUAAGGGUA, for which the self-cleavage was found to be 0.4.

With GUUAACGGUCAUAGGCCAUGGAAACUAGGAGCACCAUUUCGCUGCCAGUGAAGAUAUGAACAAAGAAAAUCUGGGCCAGGCAGGCAUCAAAAGAAAUAGUCCUGCGCUCAACCACAAAGUCUGUAAUUAUUUUAAGGGUA, the self-cleavage amounted to 0.1.

For the variant GUUAACGGUCAUAGGCCAUGGAAACUAGGAGCACCAUUUCGCUGCCAGUGAAGAUAUGAACAAAGAAAAUCUGGGCCAGGCAGGCAUCAAAAGAAAUAGCCUCGCGCUCAACCGGAGAGUCUGUAAUCAUUUUAAGGGUA, the self-cleavage was 0.43.

As to GUUAACGGUCAUAGGCCAUGGAAACUAGGAGCACCAUUUCGCUGCCAGUGAAGAUAUGAACAGAGAAAAUCUGGGCCAGGCAGGCAUCAAAAGAAAUGGUCUUGCGCUCAACCAGAAAGUCUGUAAUCAUUUUAAGGGUA, the self-cleavage was 0.35.

For GUUAACGGUCAUAGGCCAUGGAAACUAGGAGCACCAUUUCGCUGCCAGUGAAGAGAUGAACAAAGAAAAUCCGGGCCAGGCAGGCAUCAAAAGAAAUAGUCUUGCGCCCAACCAGAAAGUCUGUAAUCAUUUUAAGGGUA, the self-cleavage stood at 0.01.

Turning to GUUAACGGUCAUAGGCCAUGGAAACUAGGAGCACCAUUUCGCUGCCAGUGAAGAGAUGAACAAAGAAAAUCUGGGCCAGGCAGGCACCAAAAGAAGUAGUCUUGCGCUCAACCAGAAAGUCUGUAAUCAUUUUAAGGGUA, the self-cleavage was 1.86.

For the variant GUUAACGGUCAUAGGCCAUGGAAACUAGGAGCACCAUUUCGCUGCCAGUGAAGAUAUGAACAAAGAAAAUCUGGGCCAGGCAGGCAUCAAAAGAAAUAGUCUCGCGCUCCACCAGAAAGUCUGUAAUCAUUUUAAGGGUA, the self-cleavage was 0.04.

For the variant GUUAACGGUCAUAGGCCAUGGAAACUAGGAGCACCAUUUCGCUGCCAGUGAAGAUAUGAACAAGGAAAAUCUGGGCCAGGCAGGCAUCAAAAGAAAUAGUCUUGCGCUCAACCAGAAGGUCUGUAAUCACUUUAAGGGUA, the self-cleavage was determined as 1.

Regarding GUUAACGGUCAUAGGCCAUGGAAACUAGGAGCACCAUUUCGCUGCCAGUGAAGAUAUGAACAAAGAAAAUCUGGGCCAGGCAGGCAUCAGAAGAAAUAGUCUUGCGCUCAACCAGAAAGUCUGUAAUCAUUUUACGGGUA, the self-cleavage worked out at 0.97.

With GUUAACGGUCAUAGGCCAUGGAAACUAGGAGCACCAUUUCGCUGCCAGUGAAGAUAUGAACAAAGAAAAUCUAGGCCAGGCAGGCAUCAAAAGGGAUAGCCUUGCGCUCAACCAGAAAGUCUGUAAUCAUUUUAAGGGUA, the self-cleavage amounted to 0.21.

On to GUUAACGGUCAUAGGCCAUGGAAACUAGGAGCACCAUUUCGCUGCCAGUGAAGAAGUGGACAAAGAAAAUCUGGGCCAGGCAGGCAUCAAAAGAGAUAGUCUCGCGCUCGACCAGGAAGUCUGUAAUCAUUUUAAGGGUA, for which the self-cleavage amounted to 0.03.

For GUUAACGGUCAUAGGCCAUGGAAACUAGGAGCACCAUUUCGCUGCCAGUGAAGAAGUGUACGAAGAAAAUCCGGGCCAGGCAGGCAUCAAAAGAAAUAGUCUUGCGCUCAACCAGAAAGUCUGUAAUCAUUUUAAGGGUA, the self-cleavage came to 0.23.

On to GUUAACGGUCAUAGGCCAUGGAAACUAGGAGCACCAUUUCGCUGCCAGUGAAGAUAUGAACAAAGAAAAUCUGGGCCAGGCAGGCAUCAAGAGAAAUAGUCUUGCGCUCAACCAGAAAGUCCGUAAUCAUUUUAAGGGUA, for which the self-cleavage is 0.23.

Turning to GUUAACGGUCAUAGGCCAUGGAAACUAGGAGCACCAUUUCGCUGCCAGUGAAGAGAUGAACAAAGAAAAUCUGGGCCAGGCAGGCAUCAAAAGAAAUAGCCUUGCGCUCAACCAGUAAGUCUGUAAUCAUUUUAAGGGUA, the self-cleavage worked out at 0.52.

As to GUUAACGGUCAUAGGCCAUGGAAACUAGGAGCACCAUUUCGCUGCCAGUGAAGAGAUGAACAAAGAAAAUCCGGGCCAGGCAGGCAUCAAAAGAAAUAGUCUUGCGCUCGACCAGAAAGUCUGUAAUCACUUUAAGGGUA, the self-cleavage came out at 0.04.

As to GUUAACGGUCAUAGGCCAUGGAAACUAGGAGCACCAUUUCGCUGCCAGUGAAGAUAUGAACAAAGAAAAUCUGGGCCAGGCAGGCAUCAAAAGAGAUAGUCUUGCGCUCAACCAGAAAGUCCGUAGUCAUUUUAAGGGUA, the self-cleavage came out at 1.87.

Take GUUAACGGUCAUAGGCCAUGGAAACUAGGAGCACCAUUUCGCUGCCAGUGAAGAACUGAACAAGGAAAAUCUGGGCCAGGCAGGCAUCAAAAGAAAUAGUCUUGCGCUCAACCAGAAAGUCUGUAAUCAUUCUAAGGGUA: the self-cleavage was 0.51.

Consider GUUAACGGUCAUAGGCCAUGGAAACUAGGAGCACCAUUUCGCUGCCAGUGAAGAGAUGAACAAAGAAAAUCUGGGCCAGGCAGGCACCAAAAGAAAUAGUCUUGCGCUCAACCAGAAAGACUGUAAUCAUUUUAAGGGUA, for which the self-cleavage came out at 2.03.

As to GUUAACGGUCAUAGGCCAUGGAAACUAGGAGCACCAUUUCGCUGCCAGUGAAGAAGUGGACAAAGAAAAUCUGGGCCAGGCAGGCAUCUAAAGAAAUAGUCUUGCGCCCAACCAGAAAGUCUGUAAUCAUUUUAAGGGUA, the self-cleavage came out at 0.04.

On to GUUAACGGUCAUAGGCCAUGGAAACUAGGAGCACCAUUUCGCUGCCAGUGAAGAGAUGAACAAAGAAAAUCUGGGCCAGGCAGGCAUCAAAAGAAAUAGUCCUGCGCUCAACCAGAAGGUCUGUAAUCAUUUUAAGGGUA, for which the self-cleavage was determined as 1.47.

Take GUUAACGGUCAUAGGCCAUGGAAACUAGGAGCACCAUUUCGCUGCCAGUGAAGAGAUGAACAAAGAAAAUCUGGGCCAGGCAGGCAUCAAAAGAAAUAGUCUUGCGCUCAACCAGAAAGUCUGUAAUCAUUGGAAGGGUA: the self-cleavage was 1.23.

Regarding GUUAACGGUCAUAGGCCAUGGAAACUAGGAGCACCAUUUCGCUGCCAGUGAAGAUAUGAACAAAGAAAAUCUGGGCCAGGCAGGCAUCAAAAAAAAUAGUCUUGCGCUCAACCAGUAAGUCUGUAAUCAUUUUAAGGGUA, the self-cleavage came out at 0.09.

For the variant GUUAACGGUCAUAGGCCAUGGAAACUAGGAGCACCAUUUCGCUGCCAGUGAAGAUAUGAGCAAAGAAAAUCUAGGCCAGGCAGGCGUCAAAAGAAAUAGUCUUGCGCUCAACCAGAAAGUCUGUAAUCAUUUUAAGGGUA, the self-cleavage is 0.32.

On to GUUAACGGUCAUAGGCCAUGGAAACUAGGAGCACCAUUUCGCUGCCAGUGAAGAUAUGACCAAAGAAAUUCUGGGCCAGGCAGGCAUCAAAAGAAAUAGUCUUGCGCUCAACCAGAAAGUCUGUAAUCAUUUUAAGGGUA, for which the self-cleavage is 0.51.

For the origin of these results see the RNAGym collection of RNA variant scans (doi:10.7554/elife.90254).
